# Results from PubChem BioAssay AID463173 (ICCB-Longwood Screening Facility, Harvard Medical School, 2010).
# Hit rate of the full screen: of about 52,000 compounds, about 1,700 (3.3%) were called active. Rule as the data show it: active = survival mostly below about 52% (no sharp cut-off); inactive = mostly above about 56%. The list shows a part of the results.
# Tested on: Wild type
# Assay: S. aureus survival, RN4220 and DeltatarO strains – OD600, teichoic acid synthesis inhibitors, primary screen (AID 463173)
# Settings: S. aureus RN4220 wild type/DeltatarO growth, OD600, 18 h, hits give low values, screened at 18.75 µg/mL (by protocol)
row,SMILES,survival
1,CCOc1ccc(-c2cc(CCCC(=O)NCCc3ccc(SC)cc3)no2)cc1,inactive: 69%
2,COc1ccc(OCC(=O)N2CCN(C(=O)c3cccc(OC)c3OC)CC2)cc1,inactive: 80%
3,CC(C)Oc1ccc2ccc(=O)oc2c1,inactive: 104%
4,CCCCN(C(=O)CCn1c(=O)oc2ccccc21)c1ccccc1,inactive: 71%
5,COc1cc(NC(=O)c2noc3c2CC(C(C)(C)C)CC3)cc(OC)c1OC (configuration not stated),inactive: 68%
6,CC1CCCCN1C(=O)c1ccccc1NS(=O)(=O)c1ccc(F)cc1 (configuration not stated),inactive: 107%
7,COCCn1c(C)cc(O)c(C(c2ccccc2Cl)N2CCN(c3ccccc3)CC2)c1=O (configuration not stated),inactive: 79%
8,O=C(NCC(c1ccco1)S(=O)(=O)c1cccs1)c1c(F)cccc1F (configuration not stated),inactive: 66%
9,CCN(CC)C(=O)c1sc2c(c1C)c(=O)n(Cc1ccccc1)c(=O)n2Cc1c(C)cc(C)cc1C,inactive: 65%
10,Cc1nn(-c2ccc(N3CCCC3)nn2)c(C)c1CCC(=O)N1CCN(c2ccc(F)cc2)CC1,inactive: 128%
11,O=C(NCC(c1cccnc1)N1CCc2ccccc21)c1cccc(F)c1 (configuration not stated),inactive: 79%
12,CCOC(=O)c1ccc(NC(=O)c2c(NCc3ccc(OC)c(OC)c3OC)sc3c2CCC(C)C3)cc1 (configuration not stated),inactive: 124%
13,Cc1cccc(NC(=O)Cn2c(=O)n(CC3CCC(C(=O)NCCc4ccccc4)CC3)c(=O)c3ccccc32)c1C (configuration not stated),inactive: 74%
14,Cc1ccc2[nH]c(C)c(CCNC(=O)c3cc4cc(Br)ccc4oc3=O)c2c1,inactive: 71%
15,Cc1ccc(NS(=O)(=O)c2ccc3[nH]c4c(c3c2)CCCCCC4)cc1C,active: -3%
16,CCOc1ccc(S(=O)(=O)Nc2ccc3c(c2)CCCN3S(=O)(=O)c2ccc(C)cc2)cc1,inactive: 78%
17,Cc1ccc(CNC(=O)c2cc(NS(=O)(=O)c3ccc(C)cc3)ccn2)cc1,inactive: 66%
18,CCOC(=O)c1cc(S(=O)(=O)N(C)c2ccccc2)[nH]n1,inactive: 133%
19,O=c1cc(Nc2cccc(Br)c2)[nH]c(=O)[nH]1,inactive: 105%
20,CCOc1ccccc1CNC(=O)CCCn1c(=O)c2cccn2c2ccc(F)cc21,inactive: 52%
21,COC(=O)c1sc2cccc(F)c2c1S(=O)(=O)NCc1ccccc1Cl,inactive: 78%
22,COc1ccc(NC(=O)CN(C)S(=O)(=O)c2ccc3nc(C)sc3c2)cc1Cl,inactive: 86%

row,SMILES,survival
1,Cn1c(C(=O)NCc2ccccc2F)cc2cc(S(=O)(=O)N3CCCCC3)ccc21,inactive: 70%
2,Cn1c(Oc2cccc(Cl)c2)nc2c1c(=O)n(Cc1ccccc1Cl)c(=O)n2C,inactive: 85%
3,Cc1cccc(Nc2nnc(-c3ccc(C)c(S(=O)(=O)N4CCOCC4)c3)c3ccccc23)c1,inactive: 86%
4,CCCOc1ccc(C(=O)Nc2ccc(NC(=O)c3ccc(Br)cc3)cc2)cc1,inactive: 79%
5,COc1ccc(CCNCc2c(C(=O)O)c(C)n(Cc3cccc(C)c3)c2C)cc1OC,inactive: 87%
6,Cc1nc(-c2ccccc2)sc1C(N)=O,inactive: 113%
7,Cc1cc(C)cc(NC(=O)C2CCN(c3nnc(-n4c(C)ccc4C)s3)CC2)c1,inactive: 82%
8,CCOC(=O)c1scc(-c2ccc(C)cc2)c1S(=O)(=O)N1CCN(c2ccccc2)CC1,inactive: 80%
9,CCc1cccc(NC(=O)CN(C)S(=O)(=O)c2ccc3c(c2)n(C)c(=O)c(=O)n3C)c1,inactive: 71%
10,CCOc1cc(C(=O)Nc2ccc3nc(N4CCN(C)CC4)cc(C)c3c2)cc(OCC)c1OCC,inactive: 134%
11,COc1ccc(-n2c(SCC(=O)Nc3ccc4c(c3)OCO4)nc3c([nH]c4ccccc43)c2=O)cc1,inactive: 81%
12,CC(=O)c1ccc(NS(=O)(=O)c2ccc3[nH]c(=O)[nH]c3c2)cc1,inactive: 95%
13,COC(=O)c1ccc(C=Nc2ccc3oc(-c4ccc(N(C)C)cc4)nc3c2)cc1,inactive: 108%
14,COc1ccc(Nc2cc(C)c3cc(NC(=O)COc4cccc(C)c4)ccc3n2)cc1,inactive: 81%
15,COc1cccc(CNC(=O)C2=C(C)C(=O)OC23CCCCCC3)c1,inactive: 79%
16,Cc1cccc(N2CCN(C(=O)CCNS(=O)(=O)c3ccc4c(c3)CCN4C(=O)C3CC3)CC2)c1C,inactive: 73%
17,COc1ccc2nc(NC(=O)c3nc(S(=O)(=O)Cc4ccc(C)cc4)ncc3Cl)sc2c1,inactive: 96%
18,COc1ccc(Cl)cc1NC(=O)c1noc2c1CCc1ccccc1-2,inactive: 84%
19,O=C(CN1C(=O)c2ccccc2Sc2ncccc21)Nc1cccc(C(F)(F)F)c1,inactive: 85%
20,Cc1cc(C)c(Cn2cnc3nc4c(cc3c2=O)CCCC4)c(C)c1,inactive: 70%
21,CCOc1ccccc1NC(=O)CN(c1cc(C)cc(C)c1)S(=O)(=O)c1c(C)nn(C)c1C,inactive: 69%
22,CCc1cc(=O)oc2c(C)c(OCC(=O)Nc3ccc(S(=O)(=O)N(CC)CC)cc3)ccc12,inactive: 69%

row,SMILES,survival
1,CCOc1ccc(C(=O)NCC(c2ccc3c(c2)OCO3)N2CCN(C)CC2)cc1 (configuration not stated),inactive: 77%
2,CCOc1ccc2nc(Cl)c(C3CC(c4ccccc4)=NN3C(=O)CCC(=O)O)cc2c1 (configuration not stated),inactive: 74%
3,CCOc1ccc(NC(=O)N2CCC(n3c(C)nc4cccnc43)CC2)cc1,inactive: 69%
4,Cc1nn2c(C)c(C(=O)NCc3cccc(Br)c3)cnc2c1-c1ccccc1,inactive: 53%
5,Cc1ccc(-c2nnc(Nc3ccc(O)cc3)c3ccccc23)cc1S(=O)(=O)NC(C)(C)CO,inactive: 187%
6,CCOc1ccc(S(=O)(=O)N(CC(=O)Nc2ccc(OC)c(Cl)c2)c2ccccc2)cc1,inactive: 102%
7,CNC(=O)C1CCN(S(=O)(=O)c2ccccc2)CC1,inactive: 109%
8,Cc1ccc(Cl)cc1N1CCN(C(=O)COc2cc(=O)n(C)c3ccccc23)CC1,inactive: 90%
9,O=C(NC1CCCCC1)c1ccco1,inactive: 102%
10,Cc1ccc(/C=C/c2onc(C)c2S(=O)(=O)N2CCC(C(=O)N3CCN(c4cc(C)ccc4C)CC3)CC2)cc1,inactive: 85%
11,CC(=O)N1CCc2c(sc3c2c(=O)n(Cc2ccccc2)c(=O)n3Cc2ccccc2Cl)C1,inactive: 98%
12,COc1ccc(Nc2nc3c(S(=O)(=O)c4ccc(C)cc4)nnn3c3ccsc23)cc1Cl,inactive: 84%
13,COC(=O)c1cc2sc(Cl)cc2n1Cc1nc(-c2ccccc2C)oc1C,inactive: 85%
14,COc1ccc(NC(=O)C2CCN(c3ccc(Sc4ccc(C)cc4)nn3)CC2)cc1,inactive: 74%
15,CC1CN(C(=O)N2CCC(C(=O)NCc3cccs3)CC2)c2ccccc2O1 (configuration not stated),inactive: 97%
16,CCC1CCCCN1CCCNC(=O)c1c(O)nc2cc(C)ccn2c1=O (configuration not stated),inactive: 91%
17,COc1cc(-c2nc(-c3ccccc3)c(-c3ccc(Br)cc3)[nH]2)cc(OC)c1O,active: 5%
18,CCCCN(CC)C(=O)CSc1nc2ccccc2c(=O)n1Cc1ccco1,inactive: 105%
19,COc1cccc(CNC(=O)Cn2c(=O)nc(-c3ccccc3F)c3cc(Cl)ccc32)c1,inactive: 82%
20,CC1CCN(S(=O)(=O)c2ccc3c(c2)N(CC(=O)NC(C)(C)C)C(=O)CS3)CC1,inactive: 111%
21,COc1ccc(Nc2oc(/C=C/c3cc(OC)c(OC)c(OC)c3)nc2C#N)cc1,inactive: 78%
22,COc1ccc(S(=O)(=O)N(CC(=O)NCCc2ccccc2)c2ccc(Cl)cc2)cc1,inactive: 99%

row,SMILES,survival
1,CCOC(=O)c1ccccc1NC(=O)CSc1cn(CC(=O)N2CCCCCC2)c2ccccc12,inactive: 86%
2,Cc1oc2ncnc(N3CCCCC3)c2c1C(=O)N1CCN(c2ccc(Cl)cc2)CC1,inactive: 75%
3,O=C(Nc1ccc2c(c1)CCC2)C1CCN(c2ccc(S(=O)(=O)N3CCCC3)cc2)CC1,inactive: 116%
4,COc1ccccc1C(=O)Nc1ccc(S(=O)(=O)Nc2nc(C)cc(C)n2)cc1,inactive: 77%
5,CCOc1ccc(C(=O)c2oc3ccccc3c2NC(=O)c2cc(=O)c3ccc(C)cc3o2)cc1,inactive: 132%
6,CC(=O)SCCC(=O)N1CCn2c3c(c4cc(C)ccc42)CCCC31 (configuration not stated),inactive: 115%
7,CCN(Cc1ccccc1)C(=O)c1cc2sccc2n1Cc1ccccc1,inactive: 108%
8,COc1ccc(-c2nc3c4ccccc4n(CC(=O)N4CCN(c5ccccc5F)CC4)c(=O)n3n2)cc1,inactive: 91%
9,CCc1ccc(NC(=O)CCCc2nnc3n(C(C)CC)c(=O)c4sccc4n23)cc1 (configuration not stated),inactive: 102%
10,Cc1ccc(NC(=O)CSc2nnc(NC(=O)NC3CCCCC3)s2)cc1,inactive: 66%
11,CCCCN(CC)CCNC(=O)c1nn(C)c2c1CS(=O)(=O)c1ccccc1-2,inactive: 85%
12,O=C(Cn1nnc2ccccc21)OCC(=O)c1ccc(Cl)cc1,inactive: 112%
13,Nc1ccc(N2CCOCC2)c(N)c1,inactive: 113%
14,COC(=O)c1ccccc1NC(=O)c1cc(C)nc2c1c(C)nn2-c1ccc(C)cc1,inactive: 78%
15,COc1cccc(OCC(=O)NC2CC(=O)N(c3ccc4c(c3)OCCO4)C2)c1 (configuration not stated),inactive: 71%
16,COc1cc(OC)c(NC(=O)n2ncc3cc(Cl)ccc32)cc1Cl,inactive: 101%
17,COc1ccc(C2CC(=O)c3c([nH]c(C(=O)OC4CCCCCC4)c3C)C2)cc1 (configuration not stated),inactive: 86%
18,COc1ccc(OC)c(NC(=O)CSC2=Nc3ccccc3C3=NC(CC(=O)NCc4ccc(F)cc4)C(=O)N23)c1 (configuration not stated),inactive: 64%
19,Cc1ccc(Cl)cc1NC(=O)NCc1cccn1Cc1ccc(F)cc1,inactive: 132%
20,O=C(Nc1ccccc1O)c1cc(S(=O)(=O)N2CCCC2)ccc1Cl,inactive: 68%
21,Cc1ccc(NC(=O)N2CCN(c3nnc(C)c4c(C)n(-c5ccc(Cl)cc5)nc34)CC2)c(C)c1,inactive: 73%
